The text below walks through data of the supplement of paper PMC11417369.

The list shows a part of the results.

The assay concerns PfHDP1 homeodomain (GST-tagged). Briefly: gcPBM binding intensity (ln(normalized median fluorescence intensity)); higher = stronger DNA binding. The method in brief:
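Each value is the highest Masliner-normalised natural-log median intensity across replicate spots of either orientation of a probe. The probes were primer-extended double-stranded 36-bp intergenic genomic sequences on an Agilent 4 × 180k array, alongside negative controls, exposed for 1 h to GST-tagged P. falciparum DNA-binding domains expressed in E. coli. Bound protein was picked up with Alexa488 anti-GST antibody and scanned at 488 nm.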
As to “AAAAAAAAAAAAATACGTACACAAAAAATTGCAAAG [XGTACX_site5663]”, the “gcPBM binding intensity (ln)” value worked out at 8.69.

As to “AATATATTAAAAAAGCGTACAAGAATTGGAAAATGG [XGTACX_site6576]”, the “gcPBM binding intensity (ln)” value was 7.08.

On to “ATATATTATCAACTTACACACAGAAAAATATAATAA [CACACA_site293]”, for which the “gcPBM binding intensity (ln)” value stood at 6.53.

Take “GATATGTAAATAATATGTACATATTTATATTGTATT [XGTACX_site4052]”: the “gcPBM binding intensity (ln)” value came to 6.44.

With “TTTAAAGGTGATAAAACACACGATTTAGAAATGTAT [CACACA_site3161]”, the “gcPBM binding intensity (ln)” value turned out to be 6.46.

On to “AAAAAGAATGTGAACACACACATTGAATATAATTTA [CACACA_site1262]”, for which the “gcPBM binding intensity (ln)” value amounted to 6.23.

Regarding “TTTTTAGTAACATATAGTACATATATATATATATGT [XGTACX_site4780]”, the “gcPBM binding intensity (ln)” value was 6.61.

As for “TTAATACAAATAAAAAGTACAAGTATCGAACTACTA [XGTACX_site6308]”, the “gcPBM binding intensity (ln)” value was found to be 6.03.

Take “ATAATATGAAACTCGTACGAGGTTGTCCCAAATATA [CACACA_negctrl_site1350]”: the “gcPBM binding intensity (ln)” value came out at 6.6.

Consider “TTATTTTTTCTTCAAATGTGAATTATTCATTTATTT [TGCATGCA_negctrl_site545]”, for which the “gcPBM binding intensity (ln)” value was 6.38.

Turning to “AAAAAAAAAACACACACATGCACATCATATTATATA [TGCATGCA_site133]”, the “gcPBM binding intensity (ln)” value was 7.84.

Take “GTTGTTATATAAAGGAGTACATAATAACACAAATAT [XGTACX_site615]”: the “gcPBM binding intensity (ln)” value was 7.

“TTTTCTTGTAGTATAACAAAATATAGTAATATATAT [GTGCAC_negctrl_site609]”: the “gcPBM binding intensity (ln)” value stood at 6.51.

“GATTTATTTCATATCACACATTTTGGCTATTTTGTG [CACACA_site5793]”: the “gcPBM binding intensity (ln)” value amounted to 6.39.

For the sequence “AAAAAAAAAAAAAAAACACACATTTATAGTATATAT [CACACA_site1194]”, the “gcPBM binding intensity (ln)” value came out at 6.7.

Consider “CCATTTGGTATTATATGTACATATAATTTTTTTTTT [XGTACX_site157]”, for which the “gcPBM binding intensity (ln)” value turned out to be 6.54.

“AATCCTTCATATGTAGTGCATATTAACAAAATAAAA [GTGCAC_site9500]”: the “gcPBM binding intensity (ln)” value is 8.42.

In the case of “TCCAATTCTTTATTTTGTACACATTATGTGCATATG [XGTACX_site6290]”, the “gcPBM binding intensity (ln)” value was determined as 10.9.

In the case of “GGAATAACCAGACACACACACACATATATATATATA [CACACA_site3541]”, the “gcPBM binding intensity (ln)” value came out at 9.21.

For “TATATATAATATTATACACACATATCTGCATAATAT [CACACA_site4202]”, the “gcPBM binding intensity (ln)” value came out at 7.05.

Take “AGATCATAATATTATACACACATTATATATATGTAA [CACACA_site8419]”: the “gcPBM binding intensity (ln)” value came out at 7.15.

Take “TGGAAAGTTATTAACACACACATATAAATATTTATA [CACACA_site6173]”: the “gcPBM binding intensity (ln)” value came to 6.74.

Consider “AAGTACCATATAGGCACACATATATATATATATATA [CACACA_site3282]”, for which the “gcPBM binding intensity (ln)” value turned out to be 9.48.

Turning to “AAAAACCATTCGCACACACACATAATCTATAATATA [CACACA_site6782]”, the “gcPBM binding intensity (ln)” value turned out to be 7.67.

For “GTATATATGTATATGTGTACATATATTTTATAATAT [XGTACX_site5703]”, the “gcPBM binding intensity (ln)” value came to 6.46.

Consider “AAAAACGAAAAAAATACACACCTGAAAAGATATGTA [CACACA_site4644]”, for which the “gcPBM binding intensity (ln)” value came out at 6.05.

Consider “AATATTTTGATGTGTACACATTAATACAGTTTTACA [CACACA_site5711]”, for which the “gcPBM binding intensity (ln)” value came to 7.04.

With “TATATATATTAACTTGTGCGCAAAAAGATATAATTT [GTGCAC_site9672]”, the “gcPBM binding intensity (ln)” value was determined as 7.81.

Take “ATATGTATGTATGTCTCAAAATTTCATATTATATTA [CACACA_negctrl_site784]”: the “gcPBM binding intensity (ln)” value came to 6.23.

Take “TAGGATATTGAATAATGTACTTTATATATAATATAA [XGTACX_site7828]”: the “gcPBM binding intensity (ln)” value was 6.08.

On to “AAGAAATAAAAAAAACGTACATATATACATACATAC [XGTACX_site3980]”, for which the “gcPBM binding intensity (ln)” value amounted to 7.3.

For the sequence “AATATATATATTAAATGTACATTACATAATTATATA [XGTACX_site3450]”, the “gcPBM binding intensity (ln)” value worked out at 6.59.

With “TGCAACAAAATAAACACACACACACTAGCACAAAAA [CACACA_site5805]”, the “gcPBM binding intensity (ln)” value was determined as 6.96.

For “TAAATGAAAATATGTACACACTTGAAAACTTTTATG [CACACA_site7388]”, the “gcPBM binding intensity (ln)” value stood at 6.61.

With “TTTTTTTTTTTAGACACATGCATTTTTATAATTTTC [TGCATGCA_site843]”, the “gcPBM binding intensity (ln)” value was 6.53.

In the case of “TCCTAATGCTACCACACACACAAAAACAAATAATAA [CACACA_site2610]”, the “gcPBM binding intensity (ln)” value stood at 7.2.

Turning to “TTATAAGATTTATGTACACACATATACACAGCTCTA [CACACA_site6481]”, the “gcPBM binding intensity (ln)” value came to 6.51.

As to “AGTATTATATATATATGTACATAATATACATATATA [XGTACX_site8514]”, the “gcPBM binding intensity (ln)” value was found to be 6.28.

“ACATATTTATATTCTACACACTTATACTATAATACA [CACACA_site7204]”: the “gcPBM binding intensity (ln)” value worked out at 6.72.

With “TAATTAATTTACATTTTAATTTTATACAAAATTTAT [CACACA_negctrl_site830]”, the “gcPBM binding intensity (ln)” value stood at 6.29.

As to “ATGGAACTTAAAAATTGTACACATAAAATGGAGAAG [XGTACX_site1823]”, the “gcPBM binding intensity (ln)” value was found to be 7.16.

As to “GTTATACGCATCAACACACACATACAACGTGGTGTA [CACACA_site1188]”, the “gcPBM binding intensity (ln)” value was found to be 6.51.

Turning to “TGTTATTAGAAAAATGCACACCAAAAAAAAAAAAAA [CACACA_site8802]”, the “gcPBM binding intensity (ln)” value turned out to be 9.12.

As to “ATATACATAATATATAATATAAATATATATATGGAA [CACACA_negctrl_site906]”, the “gcPBM binding intensity (ln)” value came out at 5.94.

On to “GCTATAAATACAGACGCACACATATACATACAGATA [CACACA_site5778]”, for which the “gcPBM binding intensity (ln)” value was 7.04.

For “TGTCATTCCTCTTATTGTACAAAAATATTATAATAT [XGTACX_site1134]”, the “gcPBM binding intensity (ln)” value was 7.26.

With “TATTAAAATATTTATACACACATAATTTTGATAAAT [CACACA_site4486]”, the “gcPBM binding intensity (ln)” value amounted to 6.42.

For “AACATATTAATGTACACACACCCACGCACAAACAAA [CACACA_site7320]”, the “gcPBM binding intensity (ln)” value was found to be 7.6.

Turning to “TAGGAGAAAAAAAAAAGTACCCACAACTATTATACT [XGTACX_site8195]”, the “gcPBM binding intensity (ln)” value turned out to be 6.54.

As to “TGGTAATATCGATTCACACATATCAAAATAAAAAAA [CACACA_site4196]”, the “gcPBM binding intensity (ln)” value came to 6.35.

As to “TGACATATTATTAGGTGGTCACGTCTCCACGTCAAG [XGTACX_site7943]”, the “gcPBM binding intensity (ln)” value turned out to be 6.47.

As to “TGTATAACATTTAGGTGTACAATTATATATAATATA [XGTACX_site8131]”, the “gcPBM binding intensity (ln)” value was found to be 6.82.

“TTGAGAAAAATTAATGGTACACATATTATAAGTATA [XGTACX_site6539]”: the “gcPBM binding intensity (ln)” value turned out to be 6.69.

For “TAATTGTACACATGCACACACAAATATTATAGATGT [CACACA_site6528]”, the “gcPBM binding intensity (ln)” value turned out to be 9.85.

Take “AAGAAAAAAAAAAAAACACACATATATTTATTTATA [CACACA_site7042]”: the “gcPBM binding intensity (ln)” value was 6.07.

For “GAAAGAAAAAATGATGAATAGAGATCAAATCTATAT [XGTACX_negctrl_site28]”, the “gcPBM binding intensity (ln)” value was found to be 6.04.
